Measurements as given in patent US7166475B2, “Compositions and methods for monitoring the modification state of a pair of polypeptides” (Cyclacel Ltd., priority 1999, dated 2007).
Values belong to the substance of their own block, whether it stands above or below them.

Experiments:
caspase 2 = molecular target: T1, caspase 2 (Homo sapiens, UniProt P42575); assay: Caspase 2 cleavage of immobilised peptides, FRET; type: biochemical; settings: procedure of Example 10, caspase 2 in place of thrombin
T1 sequence (P42575 170-325 limits assumed): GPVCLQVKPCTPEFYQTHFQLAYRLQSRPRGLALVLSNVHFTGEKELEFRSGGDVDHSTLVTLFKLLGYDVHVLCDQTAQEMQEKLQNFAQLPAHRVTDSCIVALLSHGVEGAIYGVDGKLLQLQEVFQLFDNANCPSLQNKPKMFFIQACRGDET
T1 sequence (P42575 348-452 limits assumed): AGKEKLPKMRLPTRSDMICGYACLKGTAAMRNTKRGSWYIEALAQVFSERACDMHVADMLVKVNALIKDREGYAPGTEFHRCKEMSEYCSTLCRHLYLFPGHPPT

peptide D = assay: FRET of fluorescein-labelled peptides N and C with rhodamine-labelled peptide D; type: binding; settings: no peptidase
carboxypeptidase = assay: Carboxypeptidase digestion, FRET; type: biochemical
[1] = type: physicochemical
Protocol: The circular dichroism (measured in units of ellipticity) of proteins at 222 nm provides a measure of the amount of a-helix present in the structure, with a large, negative ellipticity indicting a high level of helicity. The coiled-coil has a distinctive a-helical CD spectrum with minima at 222 nm and 208 nm (O'Shea et al., 1989, Science, 243: 538–542). The CD spectra of the unmodified Zip3 and its phosphorylated form (‘Zip3P’) are determined at a sample concentration of 10 μM in 150 mM KCB, 42.2 mM K2HPO4, 7.8 mM KH2PO4, pH 7.0 at 20° C.; spectra are recorded using a 1 mm pathlength cell in a Jasco J-715 spectropolarimeter with a Jasco PTC-348W Peltier temperature control unit. Peptide concentration is determined by tyrosine absorbance at 280 nm in 6M GuHCl. […] The effipticities of Zip3 and Zip3P at 222 nm with increasing temperature are measured. The steep portion of the sigmoid curve for Zip3 indicates the unfolding of the molecule. It is clear that this leucine zipper peptide begins to unfold at around 35° C. and is completely unfolded by 70° C. […]
The circular dichroism (measured in units of ellipticity) of proteins at 222 nm provides a measure of the amount of a-helix present in the structure, with a large, negative ellipticity indicting a high level of helicity. […] In all experiments described herein, peptide concentration is determined by tyrosine absorbance at 280 nm in 6M GnHCl.

PKA = PKA (Homo sapiens, UniProt P17612); assay: Timecourse of phosphorylation by PKA (32P-ATP); type: biochemical; settings: 0.5 μM PKA, 0.2 mM ATP
Protocol: A timecourse of phosphorylation of these peptides by PKA is run in 50 mM histidine/HCl (pH 7.0), 5 mM MgSO4, 5 mM NaF, 0.05 mM EGTA, 120 mM kcb with 0.2 mM ATP (30.9 cpm/pmol ^32P-ATP) and 0.5 μM PKA. […] Zip4T is also phosphorylated, at a slower rate, with full phosphorylation achieved in 30 minutes in this assay. In this assay, the difference in cpm recovered between the Zip4 peptides and PL919Y is due to the difference in recovery of these peptides on P81 paper. The plateau indicates full phosphorylation.
A set of timecourses of phosphorylation is performed on Zip4S using PKA and Ca^2+/Calmodulin-dependent Protein Kinase (CaMK-II), together with positive and negative controls for CaMK-II (these controls confirm that the preparation of CaMK-II posesses the expected characteristics of that enzyme). PKA phosphorylation is performed in 50 mM histidine/HCl (pH 7.0), 5 mM MgSO4, 5 mM NaF, 0.05 mM EGTA, 120 mM kcb with 0.2 mM ATP (39.72 cpm/pmol ^32P-ATP) and 0.25 μM PKA. CaMK-II phosphorylation is performed in 50 mM histidine/HCl (pH 7.0), 5 mM MgSO4, 5 mM NaF, 120 mM kcb, 0.5 mM Ca^2+, 0.037 mg/ml calmodulin with 0.2 mM ATP (39.72 cpm/pmol ^32P-ATP) and 10% crude CaMK-II. In the Ca^2+-free experiment, Ca^2+ is replaced by 0.05 mM EGTA. […]

FRET result with caspase 2 compared with Example 10 (thrombin) (caspase 2): identical results
Substance: HHHHHHGGIAQLEQEIAQLEDENDQLEQEIAQLEQEIAKLEQE [Peptide 4]

FRET of pair with peptide D after addition of carboxypeptidase (carboxypeptidase): abolishes FRET
Substance: HHHHHHGGIAQLEQEIAQLEQENAQLEQEIAQL [Peptide C]
FRET in the presence of rhodamine-labelled peptide D (peptide D): FRET is observed

time to full phosphorylation by PKA (PKA): 30 min | phosphorylation by PKA (substrate quality, rate) (PKA; compared with known substrate PL919Y): slower rate
Substance: R MKQLEDQ VRRLRRK TYHLENE VACLKKL VGERAAK (RMKQLEDQVRRLRRKTYHLENEVACLKKLVGERAAK) [Zip4T]
relative thermostability (CD) [1]: more stable than was Zip4S
